Consider 100 compounds from PMC6919601, “Identification of Plasmodium dipeptidyl aminopeptidase allosteric inhibitors by high throughput screening” (PLoS ONE, 2019).

Screen size: about 110,000 compounds; about 230 (0.21%) showed an effect of 50% or more. The list shows a part of the results.
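Note: 30 min substrate incubation versus DMSO and 10 µM JCP410 controls.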

The assay deals with DPAP1 (Plasmodium falciparum, UniProt Q8IIJ9). In words: primary screen, percent inhibition; read by cleavage of a fluorogenic dipeptide substrate; higher = more effect of the substance. The arrangement: species or system P. falciparum D10 trophozoite lysates; single well.
DPAP1, sequence (Q8IIJ9 whole entry, looked up): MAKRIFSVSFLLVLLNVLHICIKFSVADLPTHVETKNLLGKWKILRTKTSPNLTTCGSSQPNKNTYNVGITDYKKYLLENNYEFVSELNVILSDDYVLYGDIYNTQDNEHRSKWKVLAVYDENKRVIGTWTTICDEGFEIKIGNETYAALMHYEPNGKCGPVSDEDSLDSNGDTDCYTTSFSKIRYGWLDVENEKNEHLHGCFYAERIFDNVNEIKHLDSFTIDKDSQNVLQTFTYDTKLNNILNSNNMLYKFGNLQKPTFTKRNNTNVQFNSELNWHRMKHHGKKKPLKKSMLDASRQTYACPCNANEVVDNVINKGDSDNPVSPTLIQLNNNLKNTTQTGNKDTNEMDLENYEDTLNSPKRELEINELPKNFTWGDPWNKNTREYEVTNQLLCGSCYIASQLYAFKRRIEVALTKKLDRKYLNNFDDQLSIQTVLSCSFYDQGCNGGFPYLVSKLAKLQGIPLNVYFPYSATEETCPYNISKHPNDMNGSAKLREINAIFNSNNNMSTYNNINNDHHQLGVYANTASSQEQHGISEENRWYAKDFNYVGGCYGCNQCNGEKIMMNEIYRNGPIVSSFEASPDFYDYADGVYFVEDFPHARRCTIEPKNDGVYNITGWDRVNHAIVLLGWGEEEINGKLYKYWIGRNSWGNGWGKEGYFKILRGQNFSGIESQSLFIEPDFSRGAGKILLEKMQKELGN
In the case of `O=C1c2cccnc2C(=O)N1Cc1ccc(S(=O)(=O)NC2CCCc3ccccc32)cc1` (stereo not shown), the “% Inhibition @ 10 uM” value is 6.91%.
On to `COC(=O)c1sc(-c2ccccc2)cc1NC(=O)c1c(F)cccc1F`, for which the “% Inhibition @ 10 uM” value is listed as -6.04%.
In the case of `COc1nc(N(C)C)nc(N2C(=N)N(c3ccc(Cl)c(Cl)c3)C(=O)C2C)n1` (stereo not shown) it was -1.32%; in that of `COc1ccc2nc(NC(=O)c3ccccc3C(=O)O)sc2c1`, 1.59%.
As to `COc1ccc(C2C=C(c3ccc(Cl)cc3)NC(=O)C2C#N)cc1` (stereo not shown), the “% Inhibition @ 10 uM” value is given as -4.62%.
As to `CC(C)OC(=O)c1sc2nc3c(cc2c1N)CN(C)CC3`, the “% Inhibition @ 10 uM” value was 7.05%.
For the compound `CCOC(=O)c1ccc2c(c1)c(C)c(C)n2C`, the “% Inhibition @ 10 uM” value is given as -0.0309%.
For the compound `CCN(CC)CCN(CC)CC1CCCCC1`, the “% Inhibition @ 10 uM” value is 1.26%.
With `CCOc1ccc(C2CC(c3ccc(Cl)cc3Cl)Nc3nc(N)nn32)cc1` (stereo not shown), the “% Inhibition @ 10 uM” value is -2.92%.
Consider `N#Cc1c(O)nnc(-c2ccccc2)c1-c1ccccc1`, for which the “% Inhibition @ 10 uM” value was -0.413%.
Turning to `CCn1nccc1C(=O)Nc1cc(F)ccc1C`, the “% Inhibition @ 10 uM” value is reported as 1.61%.
As to `Cc1ccc(S(=O)(=O)Nc2ccn(-c3ccccc3)n2)cc1`, the “% Inhibition @ 10 uM” value was -1.76%.
Regarding `COc1ccc(-c2nc(CSCC(=O)NC3CCCc4ccccc43)c(C)o2)cc1` (stereo not shown), the “% Inhibition @ 10 uM” value is given as -2.85%.
As for `O=S(=O)(Nc1cccc(-c2cn3ccsc3n2)c1)c1ccc2ccccc2c1`, the figure is 3.05%.
`CCOc1cc(C(=O)NCc2nc(-c3ccc(Cl)cc3)no2)cc(OCC)c1OCC`: the “% Inhibition @ 10 uM” value is recorded as -1.22%.
In the case of `c1ccc(CCN2CCC(NC3CCCC3)CC2)cc1`, the “% Inhibition @ 10 uM” value is listed as -0.0908%.
Regarding `O=C(O)COc1ccc(/C=C2\SC(=O)N(c3cccc(Cl)c3)C2=O)cc1`, the “% Inhibition @ 10 uM” value came to 6.4%.
As for `C=CCc1ccccc1OCC(O)CN1CCN(CCN2C(=O)c3cccc4cccc(c34)C2=O)CC1` (stereo not shown), the “% Inhibition @ 10 uM” value was found to be 3.06%.
In the case of `O=C(NCc1ccco1)c1nn2c(c1Cl)NC(c1cccs1)CC2C(F)(F)F` (stereo not shown), the “% Inhibition @ 10 uM” value is reported as -2.87%.
As for `CCCc1[nH]nc2c1C(c1cncc(-c3ccc(F)cc3)c1)C(C#N)=C(N)O2` (stereo not shown), the figure is -4.6%; as for `CCc1ccc(C2C3=C(CC(C)(C)CC3=O)OC3=C2C(=O)CC(C)(C)C3)cc1`, 2.3%; as for `CCSc1nc(O)cc(=O)n1-c1ccccc1`, -3.67%.
`CCOc1ccccc1-c1nc(O)c2c(n1)Oc1ccccc1C2`: the “% Inhibition @ 10 uM” value is recorded as 0.655%.
As for `CC(C)c1ccc(-c2csc(NC(=O)C3C4CCC(C4)C3C(=O)O)n2)cc1` (stereo not shown), the “% Inhibition @ 10 uM” value worked out at 2.79%.
Consider `COc1ccc(CC(C)N[C@H]2CCCCNC2=O)cc1` (stereo partly shown), for which the “% Inhibition @ 10 uM” value is 1.88%.
Consider `O=C(/C(=C/c1ccccc1)c1nc2ccccc2[nH]1)c1ccccc1`, for which the “% Inhibition @ 10 uM” value is recorded as -3.35%.
Take `CC(C)c1ccc(OCC(=O)N(Cc2ccccc2F)C2CCS(=O)(=O)C2)cc1` (stereo not shown): the “% Inhibition @ 10 uM” value is given as 3.62%.
As for `O=C(c1ccccc1)N1CCCC2CCCCC21` (stereo not shown), the figure is 1.9%.
On to `Cc1cccc(-c2cc(C(=O)Nc3ccncc3)c3ccccc3n2)c1`, for which the “% Inhibition @ 10 uM” value is recorded as 7.27%.
For `CCOCCCNC(=O)C(c1ccccc1)N(Cc1cccs1)C(=O)CNC(C)=O` (stereo not shown), the “% Inhibition @ 10 uM” value is listed as -1.2%.
Consider `Cn1c(=O)n(C)c2cc(S(=O)(=O)N3CCCCC3)ccc21`, for which the “% Inhibition @ 10 uM” value is on record as -0.173%.
As to `Cc1cc(O)n2nc(NCc3ccccc3F)nc2n1`, the “% Inhibition @ 10 uM” value was -4.19%.
In the case of `NC(=O)C1CCN(C2CCCCCC2)CC1` it was 1.88%.
Take `O=C(NCc1ccc(F)cc1)c1nc(O)c2nnn(Cc3cccs3)c2n1`: the “% Inhibition @ 10 uM” value is reported as -3.64%.
Regarding `CCCS(=O)(=O)N1CCC(C(=O)Nc2cccc(Cl)c2)CC1`, the “% Inhibition @ 10 uM” value was -2.82%.
In the case of `Cc1cc(OCC(=O)Nc2ccc(S(=O)(=O)N(C)C)cc2)cc(C)c1Cl`, the “% Inhibition @ 10 uM” value was -1.89%.
As for `CC1=C(CCN2CCN(C=O)CC2)C(C)(C)CCC1`, the figure is -6.62%.
As to `COc1ccc(S(=O)(=O)N2CCC(NC(=O)NCC3CCCCC3)CC2)cc1`, the “% Inhibition @ 10 uM” value is recorded as -2.84%.
With `CC1CCCCC1N(C)C1CCN(CCCNC(=O)/C=C/c2ccccc2Cl)CC1` (stereo not shown), the “% Inhibition @ 10 uM” value was -1.27%.
For the compound `CCOC(=O)C1=C(CN2CCn3cccc3C2C)NC(=O)NC1c1ccc(OC(C)C)cc1` (stereo not shown), the “% Inhibition @ 10 uM” value came out at 5.58%.
`Cc1cc(NC(=O)Cn2ncc3c4ccccc4n(C)c3c2=O)no1`: the “% Inhibition @ 10 uM” value came out at 1.15%.
With `Cc1ccc(C2OC3(C(=O)c4ccccc4C3=O)C3C(=O)N(c4ccc(Br)cc4)C(=O)C23)cc1` (stereo not shown), the “% Inhibition @ 10 uM” value is -3.79%.
In the case of `Cc1cccc(C)c1-c1ccc(S(=O)(=O)N[C@@H](CC(C)C)C(=O)NCC#N)cc1` it was -6.98%; in that of `N#C/C(=C\c1ccccc1C(F)(F)F)c1nc(O)c2ccccc2n1`, -6.6%.
In the case of `O=CN1CCN(C2Cc3ccccc3C2)CC1` it was 1.88%; in that of `Cc1ccc(-n2ncc3c2ncn2nc(Cc4ccccc4)nc32)cc1`, 0.569%.
With `COc1ccc(CN2CCN(c3ccc(C(C)=O)cc3)CC2)cc1C`, the “% Inhibition @ 10 uM” value is -2.36%.
Turning to `COc1ccc(-c2csc(/C(C#N)=C/c3ccc(C)s3)n2)cc1`, the “% Inhibition @ 10 uM” value is 1.37%.
Consider `CCN(CC)c1cc(-c2ccccc2)nc(-c2ccccc2)n1`, for which the “% Inhibition @ 10 uM” value was 0.247%.
`CC(=O)c1c(C)oc2c1cc(NS(=O)(=O)c1ccc(C)cc1)c1ccccc12`: the “% Inhibition @ 10 uM” value was determined as 0.878%.
For the compound `c1ccc(CCNC2CCCCCCC2)nc1`, the “% Inhibition @ 10 uM” value is recorded as -1.75%.
As for `COc1cccc(-c2nc(SCC(=O)NCC3CCCO3)c(-c3ccccc3)[nH]2)c1` (stereo not shown), the “% Inhibition @ 10 uM” value was -5.27%.
For the compound `Cc1cc(/C=C2\NC(=O)NC2=O)c(C)n1-c1ccc(OCc2ccc(Br)cc2)cc1`, the “% Inhibition @ 10 uM” value stood at 14.5%.
Take `Oc1ccc2ccccc2c1[C@@H]1CCC2=NCCCN21`: the “% Inhibition @ 10 uM” value came out at 2.13%.
On to `CC(C)CCn1c(CN2CCCCC2)nc2ccccc21`, for which the “% Inhibition @ 10 uM” value was -1.31%.
For the compound `Cc1ccccc1NC(=O)COc1ccc([N+](=O)[O-])cc1`, the “% Inhibition @ 10 uM” value is recorded as -2.66%.
Consider `CCCCNS(=O)(=O)c1ccc2nc(-c3cccnc3)cc(C(=O)NCCCN(CC)CC)c2c1`, for which the “% Inhibition @ 10 uM” value is -6.91%.
As for `Cc1cc(C)n2nc(SC(C)C(=O)N3CCC4(CC3)OCCO4)nc2n1` (stereo not shown), the figure is -0.519%; as for `Cc1cc(C(=O)CSc2n[nH]c(N)n2)c(C)n1-c1cc(Cl)ccc1Cl`, -7.62%; as for `CCCCN1CCC(O)(c2ccccc2)C(C(=O)c2ccccc2)C1` (stereo not shown), -9.45%.
For the compound `Cc1ccc(C)c(CN(C)CCN(C)C)c1`, the “% Inhibition @ 10 uM” value is 1.04%.
In the case of `Cc1ccc(Cn2c(C)c3cnn(CC(=O)NCc4ccc(Cl)cc4)c(=O)c3c2C)cc1` it was -0.447%; in that of `CN(CC(=O)NCc1ccccc1)S(=O)(=O)c1cc(Cl)ccc1Cl`, -1.61%.
For the compound `O=C(NC1CCCc2ccccc21)C1CCN(c2ncnc3c2nc2n3CCCCC2)CC1` (stereo not shown), the “% Inhibition @ 10 uM” value is given as 5.05%.
For `CC(=O)N1CCN(c2ccc(NC(=O)c3cccc4c(Br)cccc34)cc2)CC1`, the “% Inhibition @ 10 uM” value amounted to 0.0974%.
On to `CC12CCC(C(=O)N(CNc3ccccc3)C1=O)C2(C)C` (stereo not shown), for which the “% Inhibition @ 10 uM” value is reported as -1.32%.
`COc1ccc(/N=C/C2=C(O)C(C)(C)OC2(C)C)cc1`: the “% Inhibition @ 10 uM” value was -5.34%.
For the compound `COc1ccc(S(=O)(=O)N2CCC(c3nnc(-c4ccccc4OC)o3)CC2)cc1OC`, the “% Inhibition @ 10 uM” value is -1.08%.
For the compound `COc1ccc(C(=O)N2CCN(Cc3ccc(SC)cc3)CC2)cc1`, the “% Inhibition @ 10 uM” value is on record as -1.08%.
For the compound `Cc1ccnc(N2COc3ccc4c(C)cc(=O)oc4c3C2)c1`, the “% Inhibition @ 10 uM” value was -2.3%.
`CC(C)(C)NC(=O)CCc1nc(-c2ccccc2)no1`: the “% Inhibition @ 10 uM” value is -3.12%.
As for `N#CCNC(=O)[C@H](Cc1cc(I)c(O)c(I)c1)NC(=O)c1ccc(-c2csc(Nc3ccncc3)n2)cc1`, the “% Inhibition @ 10 uM” value was -1.41%.
`CCOc1ccc(C2CC(c3ccc(Cl)cc3)Nc3ncnn32)cc1OC` (stereo not shown): the “% Inhibition @ 10 uM” value turned out to be 0.0842%.
On to `O=C(Nc1c(O)nc2ccccc2c1O)c1ccc(Br)cc1`, for which the “% Inhibition @ 10 uM” value worked out at 1.2%.
As for `CCC(C(=O)N1CCOCC1)n1cc(C=O)c2ccccc21` (stereo not shown), the figure is 6.95%; as for `COc1ccc(CCNC(=O)CSc2nc3cccnc3[nH]2)cc1OC`, 3.21%; as for `CCOC(=O)C1=C(C)N(c2ccc(C)c(C)c2)C(=O)/C1=C\c1ccccc1`, 3.61%.
`Nc1c(C(=O)Nc2cccc(C(F)(F)F)c2)sc2nc3c(cc12)CCC3`: the “% Inhibition @ 10 uM” value was 3.69%.
Consider `CCCNC(=O)C1CCN(c2nnc(C)c3c(C)n(-c4ccc(C)cc4)nc23)CC1`, for which the “% Inhibition @ 10 uM” value is given as -1.95%.
Turning to `O=C(COCc1cc(-c2cccs2)on1)Nc1cccnc1Cl`, the “% Inhibition @ 10 uM” value was -5.25%.
In the case of `O=C(O)CC(NC(=O)CCc1ccccc1)c1ccc(Cl)cc1` (stereo not shown), the “% Inhibition @ 10 uM” value worked out at 2.57%.
For the compound `O=C(Nc1ccc(Oc2ccccc2)cc1)c1ccccc1`, the “% Inhibition @ 10 uM” value was -2.41%.
Regarding `CCC(C)NC(=O)c1cc(-c2ccc(O)cc2)on1` (stereo not shown), the “% Inhibition @ 10 uM” value worked out at 0.0654%.
As for `Cc1ccc(-c2nnn3c2nc(NCCc2ccc(S(N)(=O)=O)cc2)c2ccccc23)cc1`, the figure is -2.92%; as for `C#CCn1cnc2c(cnn2-c2ccccc2)c1=O`, -1.75%.
Turning to `O=S1(=O)C(Cl)=C(c2ccccc2)c2ccccc21`, the “% Inhibition @ 10 uM” value is -0.759%.
For the compound `Oc1ccc(-c2ccc3c(c2)OCO3)nn1`, the “% Inhibition @ 10 uM” value amounted to 6.92%.
In the case of `Cc1ccc(CNC(=O)CCn2ccc3cc(S(=O)(=O)N4CCCCC4)ccc32)o1` it was 0.931%; in that of `COc1ccc2c(Cl)c(C(=O)Nc3ccc(S(=O)(=O)N4CCCC4)cc3)sc2c1`, -2.45%.
Take `O=C(Cc1cccc2ccccc12)NCc1ccc2c(c1)OCO2`: the “% Inhibition @ 10 uM” value is on record as 3.47%.
As to `COc1ccc(/C=C/C2=CCN(CC(O)c3ccccc3)CC2)cc1` (stereo not shown), the “% Inhibition @ 10 uM” value was determined as 1.4%.
For the compound `Cc1cc(C)cc(OCC(O)CN2CCN(Cc3ccc4c(c3)OCO4)CC2)c1` (stereo not shown), the “% Inhibition @ 10 uM” value is listed as -8.78%.
As for `CC(C)(C)C(=O)NC1(C(F)(F)F)N=C(c2ccccc2)NC1=O` (stereo not shown), the figure is 0.221%.
In the case of `O=C(COc1ccc(Cl)cc1)Nc1ccc(C(F)(F)F)cc1` it was 1.96%.
As for `CC(=O)n1c2ccccc2c2cc(Br)ccc21`, the “% Inhibition @ 10 uM” value amounted to 0.135%.
For `CCSc1nc(O)c2c(n1)NC(=O)CC2c1cc(OC)c(OC)c(OC)c1` (stereo not shown), the “% Inhibition @ 10 uM” value was 3.68%.
In the case of `c1csc(-c2cc3ccccc3[nH]2)c1` it was -5.64%.
As for `CCOC(=O)c1[nH]c2ccc(OC)cc2c1NC(=S)N1CCN(c2ncccn2)CC1`, the figure is -1.71%; as for `CC1(C)CC(=O)c2c(O)c(-c3ccccc3)c(=O)n(-c3ccc(Cl)cc3)c2C1`, 0.674%.
For the compound `COC(=O)C1=CN(C)C=C(C(=O)OC)C1c1ccc(OC)c(OC)c1`, the “% Inhibition @ 10 uM” value is 1.86%.
